{"source": "the supplement of paper PMC8728848", "test_in_all_cases": "glycan array binding signal (z-score within array); higher = stronger binding", "settings_in_all_cases": "glycan notation: IUPAC condensed, linker removed", "key": {"GlcNAc(b1-3)GalNAc": {"target": "GlcNAc(b1-3)GalNAc", "how_it_was_run": "(§1)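 Arrays were curated from the Consortium for Functional Glycomics database, 3228 in total, and kept only where the protein sequence was available. Binding is expressed as a within-array Z-score. This score was averaged across arrays of the same protein sequence at different concentrations or buffers and across linkers, and negative values can be read as non-binding.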"}, "GlcNAc(b1-3)Man": {"target": "GlcNAc(b1-3)Man", "how_it_was_run": "as §1"}, "[1]": {"target": "GlcNAc(b1-3)[GlcNAc(b1-4)][GlcNAc(b1-6)]GlcNAc", "how_it_was_run": "as §1"}, "[2]": {"target": "GlcNAc(b1-3)[GlcNAc(b1-6)]Gal(b1-4)GlcNAc", "how_it_was_run": "as §1"}, "[3]": {"target": "GlcNAc(b1-3)[GlcNAc(b1-6)]GalNAc", "how_it_was_run": "as §1"}, "[4]": {"target": "GlcNAc(b1-4)Gal(b1-4)GlcNAc", "how_it_was_run": "as §1"}, "GlcNAc(b1-4)GlcNAc": {"target": "GlcNAc(b1-4)GlcNAc", "how_it_was_run": "as §1"}, "[5]": {"target": "GlcNAc(b1-4)GlcNAc(b1-4)GlcNAc", "how_it_was_run": "as §1"}, "[6]": {"target": "GlcNAc(b1-4)GlcNAc(b1-4)GlcNAc(b1-4)GlcNAc(b1-4)GlcNAc", "how_it_was_run": "as §1"}, "[7]": {"target": "GlcNAc(b1-4)GlcNAc(b1-4)GlcNAc(b1-4)GlcNAc(b1-4)GlcNAc(b1-4)GlcNAc", "how_it_was_run": "as §1"}, "[8]": {"target": "GlcNAc(b1-4)[GlcNAc(b1-6)]GalNAc", "how_it_was_run": "as §1"}, "[9]": {"target": "GlcNAc(b1-6)Gal(b1-4)GlcNAc", "how_it_was_run": "as §1"}, "GlcNAc(b1-6)GalNAc": {"target": "GlcNAc(b1-6)GalNAc", "how_it_was_run": "as §1"}, "[10]": {"target": "GlcNAc6S(b1-3)Gal(b1-4)GlcNAc", "how_it_was_run": "as §1"}, "Kdn(a2-3)Gal(b1-3)GalNAc": {"target": "Kdn(a2-3)Gal(b1-3)GalNAc", "how_it_was_run": "as §1"}, "Kdn(a2-3)Gal(b1-3)GlcNAc": {"target": "Kdn(a2-3)Gal(b1-3)GlcNAc", "how_it_was_run": "as §1"}, "Kdn(a2-3)Gal(b1-4)Glc": {"target": "Kdn(a2-3)Gal(b1-4)Glc", "how_it_was_run": "as §1"}, "Kdn(a2-3)Gal(b1-4)GlcNAc": {"target": "Kdn(a2-3)Gal(b1-4)GlcNAc", "how_it_was_run": "as §1"}, "[11]": {"target": "Kdn(a2-3)Gal(b1-4)[Fuc(a1-3)]GlcNAc", "how_it_was_run": "as §1"}, "Kdn(a2-6)Gal(b1-4)GlcNAc": {"target": "Kdn(a2-6)Gal(b1-4)GlcNAc", "how_it_was_run": "as §1"}, "[12]": {"target": "Man(a1-2)Man(a1-2)Man(a1-3)Man", "how_it_was_run": "as §1"}, "[13]": {"target": "Man(a1-2)Man(a1-2)Man(a1-6)[Man(a1-3)]Man", "how_it_was_run": "as §1"}, "Man(a1-2)Man(a1-3)Man": {"target": "Man(a1-2)Man(a1-3)Man", "how_it_was_run": "as §1"}, "[14]": {"target": "Man(a1-2)Man(a1-3)[Man(a1-2)Man(a1-6)]Man", "how_it_was_run": "as §1"}, "[15]": {"target": "Man(a1-2)Man(a1-3)[Man(a1-2)Man(a1-6)]Man(a1-6)[Man(a1-2)Man(a1-2)Man(a1-3)]Man", "how_it_was_run": "as §1"}, "[16]": {"target": "Man(a1-2)Man(a1-3)[Man(a1-2)Man(a1-6)]Man(a1-6)[Man(a1-2)Man(a1-2)Man(a1-3)]Man(b1-4)GlcNAc(b1-4)GlcNAc", "how_it_was_run": "as §1"}, "[17]": {"target": "Man(a1-2)Man(a1-3)[Man(a1-6)]Man(a1-6)[Man(a1-2)Man(a1-3)]Man(b1-4)GlcNAc(b1-4)GlcNAc", "how_it_was_run": "as §1"}, "[18]": {"target": "Man(a1-2)Man(a1-6)[Man(a1-3)]Man(a1-6)[Man(a1-2)Man(a1-2)Man(a1-3)]Man", "how_it_was_run": "as §1"}, "[19]": {"target": "Man(a1-2)Man(a1-6)[Man(a1-3)]Man(a1-6)[Man(a1-2)Man(a1-2)Man(a1-3)]Man(b1-4)GlcNAc(b1-4)GlcNAc", "how_it_was_run": "as §1"}, "Man(a1-3)[Man(a1-6)]Man": {"target": "Man(a1-3)[Man(a1-6)]Man", "how_it_was_run": "as §1"}, "[20]": {"target": "Man(a1-3)[Man(a1-6)]Man(a1-6)[Man(a1-2)Man(a1-3)]Man(b1-4)GlcNAc(b1-4)GlcNAc", "how_it_was_run": "as §1"}, "[21]": {"target": "Man(a1-3)[Man(a1-6)]Man(a1-6)[Man(a1-3)]Man", "how_it_was_run": "as §1"}, "[22]": {"target": "Man(a1-3)[Man(a1-6)]Man(a1-6)[Man(a1-3)]Man(b1-4)GlcNAc(b1-4)GlcNAc", "how_it_was_run": "as §1"}, "[23]": {"target": "Man(a1-3)[Man(a1-6)]Man(b1-4)GlcNAc(b1-4)GlcNAc", "how_it_was_run": "as §1"}, "[24]": {"target": "Man(a1-3)[Man(a1-6)]Man(b1-4)GlcNAc(b1-4)[Fuc(a1-6)]GlcNAc", "how_it_was_run": "as §1"}, "Man(a1-6)Man": {"target": "Man(a1-6)Man", "how_it_was_run": "as §1"}, "Man(b1-4)GlcNAc": {"target": "Man(b1-4)GlcNAc", "how_it_was_run": "as §1"}, "MurNAc(b1-4)GlcNAc": {"target": "MurNAc(b1-4)GlcNAc", "how_it_was_run": "as §1"}}, "note": "Some of the results follow.", "data": [{"binder": "SP16664B-bot-474-25-474 (Bacteroides ovatus) (protein) CEEDIEIGNKIDESSYLASTQLSGLLLDENTNKNSSVIELRNNEYSTNVVFRLSKLPQKGVDVQIAVEESYAAIYNTIHETDFEVFPAANVKIANNGTFVLAPDDKVTPSVKVTLTAFDGMEEDKTYIVPLTVTSSTEGVTFTETSKHMVLLVQDYRNKPNTNKGEDAVQTVLYFEVNDTNPLNALEFLTESGKYFFDHIVLFAANINWDPEKQRVYLANNENVQFLLDNNDKYLQPLRKAGMKIIISILGNHDEAGVAQLSDMGAREFARELAAYCRAYNLDGVAFDDEYSNSPDLSNPWLASPSAYAGSRLMYECKAVMPEKIVSLYNLGNMYSSSLQVIDGIEPGQYCDYAVADYGGAAGPGTGMTLKQCAGMSIELRRGSGNSSESTARSRKEAGYGYYMFFALDPSLYGSQVYRCQSVCKGLYDETLVYPSYYYKKNSTEREAIN", "values": [{"measurement": "glycan array binding signal (z-score)", "setting": "GlcNAc(b1-3)GalNAc", "result": -0.346}, {"measurement": "glycan array binding signal (z-score)", "setting": "GlcNAc(b1-3)Man", "result": 0.501}, {"measurement": "glycan array binding signal (z-score)", "setting": "[1]", "result": 0.579}, {"measurement": "glycan array binding signal (z-score)", "setting": "[2]", "result": -0.365}, {"measurement": "glycan array binding signal (z-score)", "setting": "[3]", "result": -0.205}, {"measurement": "glycan array binding signal (z-score)", "setting": "[4]", "result": -0.301}, {"measurement": "glycan array binding signal (z-score)", "setting": "GlcNAc(b1-4)GlcNAc", "result": -0.02}, {"measurement": "glycan array binding signal (z-score)", "setting": "[5]", "result": -0.542}, {"measurement": "glycan array binding signal (z-score)", "setting": "[6]", "result": 1}, {"measurement": "glycan array binding signal (z-score)", "setting": "[7]", "result": -0.271}, {"measurement": "glycan array binding signal (z-score)", "setting": "[8]", "result": -0.298}, {"measurement": "glycan array binding signal (z-score)", "setting": "[9]", "result": -0.268}, {"measurement": "glycan array binding signal (z-score)", "setting": "GlcNAc(b1-6)GalNAc", "result": -0.234}, {"measurement": "glycan array binding signal (z-score)", "setting": "[10]", "result": 0.26}, {"measurement": "glycan array binding signal (z-score)", "setting": "Kdn(a2-3)Gal(b1-3)GalNAc", "result": -0.281}, {"measurement": "glycan array binding signal (z-score)", "setting": "Kdn(a2-3)Gal(b1-3)GlcNAc", "result": -0.35}, {"measurement": "glycan array binding signal (z-score)", "setting": "Kdn(a2-3)Gal(b1-4)Glc", "result": -0.182}, {"measurement": "glycan array binding signal (z-score)", "setting": "Kdn(a2-3)Gal(b1-4)GlcNAc", "result": -0.391}, {"measurement": "glycan array binding signal (z-score)", "setting": "[11]", "result": -0.002}, {"measurement": "glycan array binding signal (z-score)", "setting": "Kdn(a2-6)Gal(b1-4)GlcNAc", "result": 0.531}, {"measurement": "glycan array binding signal (z-score)", "setting": "[12]", "result": -0.346}, {"measurement": "glycan array binding signal (z-score)", "setting": "[13]", "result": -0.417}, {"measurement": "glycan array binding signal (z-score)", "setting": "Man(a1-2)Man(a1-3)Man", "result": -0.437}, {"measurement": "glycan array binding signal (z-score)", "setting": "[14]", "result": -0.568}, {"measurement": "glycan array binding signal (z-score)", "setting": "[15]", "result": -0.565}, {"measurement": "glycan array binding signal (z-score)", "setting": "[16]", "result": -0.1}, {"measurement": "glycan array binding signal (z-score)", "setting": "[17]", "result": -0.368}, {"measurement": "glycan array binding signal (z-score)", "setting": "[18]", "result": -0.036}, {"measurement": "glycan array binding signal (z-score)", "setting": "[19]", "result": -0.063}, {"measurement": "glycan array binding signal (z-score)", "setting": "Man(a1-3)[Man(a1-6)]Man", "result": 0.334}, {"measurement": "glycan array binding signal (z-score)", "setting": "[20]", "result": -0.142}, {"measurement": "glycan array binding signal (z-score)", "setting": "[21]", "result": -0.159}, {"measurement": "glycan array binding signal (z-score)", "setting": "[22]", "result": -0.363}, {"measurement": "glycan array binding signal (z-score)", "setting": "[23]", "result": -0.436}, {"measurement": "glycan array binding signal (z-score)", "setting": "[24]", "result": -0.263}, {"measurement": "glycan array binding signal (z-score)", "setting": "Man(a1-6)Man", "result": 0.198}, {"measurement": "glycan array binding signal (z-score)", "setting": "Man(b1-4)GlcNAc", "result": -0.469}, {"measurement": "glycan array binding signal (z-score)", "setting": "MurNAc(b1-4)GlcNAc", "result": -0.181}]}]}
